Experimental data published in PubChem BioAssay AID686979 (National Center for Advancing Translational Sciences (NCATS), 2013).
The campaign covered roughly 420,000 compounds. About 50,000 (12%) were called active. Inconclusive results, whose numbers are uncertain, are shown with a selection of clear calls. The call rests on the fitted dose curve; in most records, active means well fitted inhibition curve with a large enough effect; inconclusive means small, poorly fitted or top-dose-only effect; inactive means flat fitted curve, though single readings scatter. Potencies of inconclusive entries are left out as doubtful fits.

Assay: qHTS for Inhibitors of human tyrosyl-DNA phosphodiesterase 1 (TDP1): qHTS in cells in presence of CPT; further: nearly all actives have a fitted effect of over 55% in size
Settings: chicken DT40 Tdp1-/-;hTDP1 cells + 20 nM CPT, ATP luminescence, 48 h; series mostly up to 46.2 µM
Summary of the method: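 Cell growth measured by CellTiter-Glo luminescence after a minimum 48 h, 37 C compound exposure with 20 nM CPT in Tdp1-knockout DT40 cells stably expressing hTDP1, seeded 400/well; qHTS titration format.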
Potency means the concentration at half of the fitted maximal effect; tags describe the fitted curve by direction and shape.

Q: With `CCC(=O)Nc1nnc(C(C)(C)C)s1` as the compound, how does the Potency read?
A: inactive

Q: For `CC1(C)CC(Cc2ccc(C(=O)c3ccccc3)cc2)N(C(=O)OC(C)(C)C)N1` (stereo unspecified), which Potency is on record?
A: active: 6.51 µM

Q: For `O=C(Nc1ccc(F)cc1)c1sc2cc(C(F)(F)F)cnc2c1-c1cccs1`, which Potency is on record?
A: inconclusive [inhibitor, single point]

Q: Which Potency does the source give for `CC1(C)CC2c3cccc(C(=O)O)c3C(=O)N2c2c1ccc1ccccc21` (stereo unspecified) here?
A: inactive

Q: For `Brc1ccc(COc2cccc3cccnc23)cc1`, which Potency is on record?
A: inactive

Q: For `CCN(CC(=O)Nc1ccc(NC(C)=O)cc1)C(=O)CC1OC(=O)c2ccccc21` (stereo unspecified), which Potency is on record?
A: inactive

Q: For `CC(C)C(=O)N1CCC2(CC1)Oc1ccc(Cl)cc1C(=O)C21CC(c2cccnc2)=NO1` (stereo unspecified), which Potency is on record?
A: inactive

Q: Which Potency does the source give for `COc1ccc(S(=O)(=O)N2Cc3ccccc3CC2C(=O)Nc2nccs2)cc1OC` (stereo unspecified) here?
A: inconclusive [inhibitor, single point]

Q: For `COc1cc([C@@H]2C[C@H]3CN(c4ccccc4)C(=O)[C@]34CCCN24)cc(OC)c1OC`, which Potency is on record?
A: inconclusive [inhibitor, single point]

Q: For `O=C(Nc1ccc2c(c1)CCCN2C(=O)c1cccs1)c1ccccc1Cl`, which Potency is on record?
A: inconclusive [inhibitor, single point]

Q: For `Cc1ccc(-c2ccc(=O)n(Cc3ccc(F)cc3Cl)n2)cc1`, which Potency is on record?
A: inconclusive [inhibitor, single point]

Q: With `CSc1cccc(NC(=O)CCn2c(=O)c3cccn3c3cccnc32)c1` as the compound, how does the Potency read?
A: inactive

Q: Which Potency does the source give for `COC(=O)CSc1nnc(-c2ccc(OC)cc2OC)o1` here?
A: inactive

Q: For `CCCCn1cc2c(c1-c1ccc(Cl)cc1)c(=O)n(C)c(=O)n2C`, which Potency is on record?
A: inconclusive [inhibitor, single point]

Q: Which Potency does the source give for `CC1(C)CC(=O)C(C=Nc2ccc3c(c2)OCO3)=C(O)C1` here?
A: inactive

Q: With `O=C(Nc1nc2cc3c(cc2s1)OCCO3)c1ccc(N2C(=O)CCC2=O)cc1` as the compound, how does the Potency read?
A: inactive

Q: With `COc1cc(OC)c(Nc2nc3ccc(C(=O)c4ccccc4)cc3n3c(C)nnc23)cc1Cl` as the compound, how does the Potency read?
A: inactive

Q: For `O=c1nc2n(-c3ccccc3F)c3ccccc3cc-2c(=O)[nH]1`, which Potency is on record?
A: inconclusive [inhibitor, partial curve]

Q: Which Potency does the source give for `O=C(Nc1ccc(OC(F)(F)F)cc1)c1cc2ccccn2n1` here?
A: inactive

Q: With `COc1ccc(C(=O)CSc2ccc(-c3ccco3)nn2)cc1` as the compound, how does the Potency read?
A: inconclusive [inhibitor, partial curve]

Q: For `CC(C)CCN1CCN(Cc2cccc(C(F)(F)F)c2)CC1CCO` (stereo unspecified), which Potency is on record?
A: inconclusive [inhibitor, single point]

Q: With `CC[C@@]12CCCN3CCc4c(n(c5ccccc45)[C@](O)(C(=O)OC)C1)[C@H]32` as the compound, how does the Potency read?
A: inactive

Q: For `N#C/C(=C\c1cn[nH]c1-c1ccc(Cl)cc1)C(=O)NC1CC1`, which Potency is on record?
A: inconclusive [inhibitor, partial curve]

Q: Which Potency does the source give for `O=C1CCC[C@@H]2C[C@@]3(C[C@@H]4CCN1[C@H]24)Nc1cc(Cl)ccc1NC3=NC1CCCCC1` here?
A: inconclusive [inhibitor, single point]

Q: Which Potency does the source give for `O=CNc1cc(-c2ccccc2Oc2ccccc2)cn2c(-c3ccc(F)cc3)cnc12` here?
A: inconclusive [inhibitor, single point]

Q: For `O=[N+]([O-])c1ccc(-c2nc3ccc([N+](=O)[O-])cc3[nH]2)cc1`, which Potency is on record?
A: active: 13 µM

Q: With `CN(CC(=O)Nc1cccc(F)c1)C(=O)CCCc1nc2ccccc2c(=O)[nH]1` as the compound, how does the Potency read?
A: inconclusive [inhibitor, single point]

Q: For `Cc1c(C(=O)N2CCN(c3ccc(F)cc3)CC2)oc2c1C(=O)CCC2`, which Potency is on record?
A: inconclusive [inhibitor, single point]

Q: With `O=C(c1ccncc1)N1CCN(C(=O)c2ccncc2)CC1` as the compound, how does the Potency read?
A: inactive

Q: For `CC(C)c1ccc(O)c(NC(=O)c2ncn[nH]2)c1`, which Potency is on record?
A: inactive

Q: Which Potency does the source give for `Cc1cccn2c(=O)c3cc(S(=O)(=O)c4ccc(F)cc4)c(=N)n(Cc4ccco4)c3nc12` here?
A: inconclusive [inhibitor, single point]

Q: With `O=C(Nc1ccc(S(=O)(=O)N2C[C@@H]3C[C@@H](C2)c2cccc(=O)n2C3)cc1)c1ccc(F)cc1` as the compound, how does the Potency read?
A: inactive

Q: With `O=C(O)c1ccc(Cl)c(NCc2cccnc2)c1` as the compound, how does the Potency read?
A: inactive

Q: Which Potency does the source give for `CCC(CC)NC(=O)c1cc2c(C)nn(Cc3ccccc3Cl)c2s1` here?
A: active: 23.1 µM

Q: For `Cc1ccc(C)c(N2CN(Cc3ccco3)CNC2=S)c1`, which Potency is on record?
A: inactive

Q: Which Potency does the source give for `Nc1ccccc1-c1nc2ccccc2c(=O)o1` here?
A: inconclusive [inhibitor, partial curve, poor fit]

Q: Which Potency does the source give for `C[C@@H]1CN([C@@H](C)CO)C(=O)c2cccc(NS(=O)(=O)c3ccc(F)cc3)c2O[C@H]1CN(C)C(=O)NC1CCCCC1` here?
A: inconclusive [inhibitor, single point]

Q: For `CC1=Nc2ccccc2/C1=C/c1sc(=S)n(-c2cccc(C(=O)O)c2)c1O`, which Potency is on record?
A: inconclusive [inhibitor, partial curve]

Q: With `CCn1cc(C(=O)NC(C)C)c(=O)c2cc(F)c(N3CCN(C(=O)c4ccco4)CC3)cc21` as the compound, how does the Potency read?
A: inconclusive [inhibitor, single point]

Q: Which Potency does the source give for `C=C(C)CNC(=S)N/N=C\c1ccc2c(c1)OCO2` here?
A: inconclusive [inhibitor, single point]

Q: For `Cc1ccc(C)c(S(=O)(=O)N2CCN(C(=O)c3ccccn3)CC2)c1`, which Potency is on record?
A: inactive

Q: Which Potency does the source give for `COc1ccc(NC(=O)CSc2nnc(-c3nonc3NC(C)=O)n2-c2ccccc2)cc1` here?
A: inconclusive [inhibitor, single point]

Q: With `CC1(C)CC2(C)OC(=N)C1(C#N)C2(C#N)C#N` (stereo unspecified) as the compound, how does the Potency read?
A: inconclusive [inhibitor, partial curve, poor fit]

Q: For `Cc1ccc(C)c(-c2csc(Nc3ncccn3)n2)c1`, which Potency is on record?
A: inconclusive [inhibitor, partial curve, poor fit]

Q: For `O=C1NC(=O)/C(=C/c2ccc(N3CCOCC3)o2)N1`, which Potency is on record?
A: inactive

Q: For `CCC(=O)N(CCC(c1ccccc1)c1ccc2c(c1)OCO2)Cc1ccc(OC(C)C)cc1` (stereo unspecified), which Potency is on record?
A: inconclusive [inhibitor, single point]
